Measured values: PMC6919601, “Identification of Plasmodium dipeptidyl aminopeptidase allosteric inhibitors by high throughput screening” (PLoS ONE, 2019)
In all, about 110,000 compounds went through this assay and about 230 (0.21%) showed an effect of 50% or more. The list shows a part of the results.

Molecular target: DPAP1 (Plasmodium falciparum, UniProt Q8IIJ9)
Assay: primary screen, percent inhibition; read by cleavage of a fluorogenic dipeptide substrate; higher = more effect of the substance
Set-up: species or system P. falciparum D10 trophozoite lysates; single well
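Also: 30 min substrate incubation versus DMSO and 10 µM JCP410 controls.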

DPAP1, sequence (Q8IIJ9 whole entry, looked up): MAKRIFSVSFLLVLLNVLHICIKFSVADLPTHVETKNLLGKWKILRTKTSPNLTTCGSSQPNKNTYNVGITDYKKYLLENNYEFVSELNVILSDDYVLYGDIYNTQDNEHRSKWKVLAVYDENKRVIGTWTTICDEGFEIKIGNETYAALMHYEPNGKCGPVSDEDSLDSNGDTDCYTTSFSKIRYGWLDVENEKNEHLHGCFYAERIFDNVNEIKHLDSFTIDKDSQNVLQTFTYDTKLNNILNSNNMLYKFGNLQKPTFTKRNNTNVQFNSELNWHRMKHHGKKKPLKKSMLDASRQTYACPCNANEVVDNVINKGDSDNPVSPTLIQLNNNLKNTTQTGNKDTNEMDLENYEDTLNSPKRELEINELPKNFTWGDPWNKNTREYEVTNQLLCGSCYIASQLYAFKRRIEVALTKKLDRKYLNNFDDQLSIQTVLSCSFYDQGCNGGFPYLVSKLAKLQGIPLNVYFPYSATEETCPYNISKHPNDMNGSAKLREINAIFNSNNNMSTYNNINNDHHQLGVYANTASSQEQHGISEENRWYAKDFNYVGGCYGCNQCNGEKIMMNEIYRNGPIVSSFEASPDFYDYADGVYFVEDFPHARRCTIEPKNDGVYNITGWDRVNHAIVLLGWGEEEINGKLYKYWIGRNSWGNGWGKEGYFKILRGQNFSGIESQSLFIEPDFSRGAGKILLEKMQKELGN

| Structure (SMILES) | % Inhibition @ 10 uM [%] |
| --- | --- |
| CCOc1cc(/C=C2/C(=N)N3OC(C)=CC3=NC2=O)ccc1OCCOc1cccc(OC)c1 | -5.1 |
| CCOC(=O)N1CCC(NC(=O)c2cc(S(=O)(=O)N3CCCC3)cn2C)CC1 | -1.56 |
| Cc1cc(C)c2c(-n3cccc3)c(C(=O)NCCCN3CCCC3=O)sc2n1 | 3.87 |
| Nc1ccc(C2(c3ccc(N)cc3)CCCCC2)cc1 | 0.135 |
| N#CC(C#N)=Cc1cccc(Oc2ccccc2)c1 | -5.36 |
| CCN(CCO)Cc1csc2c(Br)cccc12 | -6.33 |
| Cc1cc(C(=O)Nc2cnn(Cc3ccc(Cl)cc3Cl)c2)no1 | -3.12 |
| CCC(=O)c1cc2c(cc1NC(=O)c1cccc(Cl)c1)OCCO2 | -5.23 |
| c1ccc2c(CSc3nc[nH]n3)cccc2c1 | -4.31 |
| COc1ccc(S(=O)(=O)NC2CCC(NS(=O)(=O)c3ccc(OC)cc3)CC2)cc1 (stereo not shown) | -5.23 |
| CC(=O)c1c(S)nc(-c2ccccc2)nc1N1CCN(Cc2ccccc2)CC1 | 29.2 |
| Cc1ccccc1-n1nnc(-c2nc(-c3ccncc3)no2)c1N | -2.15 |
| O=C(CN(C(=O)c1ccccc1)c1ccccc1)c1ccccc1 | 0.565 |
| C=Cn1cnc2c1c(=O)n(C)c(=O)n2C | -0.467 |
| CN1CCC(N(C)Cc2cc(Br)cs2)CC1 | 2.33 |
| CCCCOc1ccc(C(C)NC(=O)CCS(=O)(=O)Cc2ccc(C)cc2)cc1 (stereo not shown) | -0.0542 |
| N=C1S/C(=C/c2ccc(-c3cccc(F)c3)o2)C(=O)N1c1nccs1 | 5.14 |
| O=C1/C(=C/c2cccnc2)CS/C1=C\c1cccnc1 | 1.16 |
| O=C(Nc1ccc2oc(-c3cccc(Br)c3)nc2c1)c1ccco1 | -0.297 |
| Cc1ccc(Nc2cc(C)nc(-c3ccccc3O)n2)cc1 | -1.59 |
| CCOC(=O)c1c(C)[nH]c(C)c1S(=O)(=O)N1CCC(C(=O)NCC(C)c2ccccc2)CC1 (stereo not shown) | 0.533 |
| Cc1ccc(NC(=O)CN(c2ccccc2F)S(C)(=O)=O)cc1C | 2.02 |
| CCOC(=O)C1=C(C)N(CC(C)C)C(=O)/C1=C\c1ccccc1OCc1ccccc1 | 1.81 |
| CC(=O)C1=C(C)CC2C3CC=C4CC(O)CCC4(C)C3CCC12C (stereo not shown) | 5.04 |
| CC(C)C[C@H](NC(=O)c1cccc(S(=O)(=O)N2CCN(C)CC2)c1)C(=O)NCC#N | 3.66 |

| Structure (SMILES) | % Inhibition @ 10 uM [%] |
| --- | --- |
| CN1C(=O)C2Cc3c([nH]c4ccccc34)C(c3cccnc3)N2C1=S (stereo not shown) | -1.8 |
| O=C(O)C1CC=CCC1C(=O)NCc1ccc(Cl)c(Cl)c1 (stereo not shown) | 2.03 |
| O=C(/C=C/c1ccccc1)c1ccc2c(c1)OCCO2 | -0.414 |
| Cc1ccc(NC(=O)C(c2ccccc2)c2ccccc2)cc1NC(=O)C(c1ccccc1)c1ccccc1 | 2.54 |
| O=C(O)/C=C/C(=O)NCc1ccccc1 | -0.807 |
| O=C(NCC1CCCO1)c1cc2n(n1)C(C(F)(F)F)CC(c1cccs1)N2 (stereo not shown) | 0.812 |
| Cc1ccc(C)c(N2CCN(S(=O)(=O)c3ccc(F)cc3)CC2)c1 | 3.35 |
| Cc1c(C(=O)NC(C)C)sc2ncn(CC(=O)N3CCC(C)CC3)c(=O)c12 | 8.71 |
| CC(C)N(CCCNC(=O)c1ccc(CS(=O)(=O)Cc2ccccc2F)o1)Cc1ccccc1 | 2.35 |
| N#CC1=C(N)N(c2c(F)cccc2F)C2=C(C(=O)CCC2)C1c1cccs1 (stereo not shown) | -3.46 |
| N#C/C(=C\c1ccc(O)cc1)c1nc(-c2ccc(Cl)cc2)cs1 | -7.55 |
| COc1cccc(/C=C2\C(=O)/C(=C/c3cccc(OC)c3OC)C3CCC2N3C)c1OC | -1.31 |
| COc1ccc(C2(C#N)CCC(=O)CC2)cc1OC | -2.63 |
| Cc1cccc2nc3ccccc3cc12 | -5.34 |
| N#Cc1c(-c2ccccc2)nc2n(-c3ccccc3)nc(C(=O)Nc3ccccc3)n2c1=O | -0.759 |
| CC1CCN(S(=O)(=O)N2CCCC(C(=O)NC3CCCCC3C)C2)CC1 (stereo not shown) | -3.12 |
| COCCNC(=O)c1cc2c(=O)oc3ccc(C)cc3c2s1 | 2.5 |
| CCOC(=O)c1c(NC(=O)C2CCCN2S(=O)(=O)c2ccccc2)sc2c1CCCC2 (stereo not shown) | 0.408 |
| Nc1c(NCc2ccccc2)c2ccccc2oc1=O | -0.636 |
| O=C(NCCCN1CCOCC1)c1cc(-c2ccc(O)cc2)on1 | -1.96 |
| Cc1ccc(C2=C/C(=C/c3ccc(-c4cccc(C(=O)O)c4)o3)C(=O)O2)cc1 | 5.1 |
| NC(=O)C1CCCN(C/C=C/c2ccccc2)C1 (stereo not shown) | 3.48 |
| Cc1ccc(N2C(=O)c3ccccc3C2Nc2nc(C)cs2)nc1 (stereo not shown) | -2.83 |
| Cc1oc(-c2ccc(C(=O)NC3CCCCCC3)cc2)nc1CS(=O)(=O)c1ccccc1 | -8.88 |
| Fc1ccccc1CSCc1nc2ccccc2[nH]1 | -4.6 |

| Structure (SMILES) | % Inhibition @ 10 uM [%] |
| --- | --- |
| CCCN(CCC)CCNC(=O)C1CCN(S(=O)(=O)c2cccc3nsnc23)CC1 | -3.58 |
| Cc1ccc(C)c(N2C(=O)CC3CS(=O)(=O)CC32)c1 (stereo not shown) | -0.105 |
| O=c1[nH]c(=O)n(Cc2ccccc2)cc1Cl | 3.61 |
| CCOc1cc(C2c3c(oc4ccccc4c3=O)C(=O)N2c2nccs2)ccc1OCCC(C)C (stereo not shown) | 2.16 |
| CCCC1=NN(C(=O)c2ccccc2OC)C(O)(C(F)(F)F)C1 (stereo not shown) | -12.5 |
| COc1cc(CCNC(=O)c2cc(C)nc3c2c(C)nn3-c2ccccc2)cc(OC)c1OC | 0.44 |
| COc1ccc(OCC(=O)NCc2ccco2)cc1 | 4.32 |
| C=CCSc1nc2c(C)cccc2[nH]1 | 2.25 |
| Cc1nnc(N2CCC(C(=O)NCCN(C)C)CC2)c2nn(-c3ccccc3)c(C)c12 | -2.68 |
| CCc1cccc2c1Sc1ccccc1CC2N1CCNCC1 (stereo not shown) | 2.55 |
| N#Cc1c(-c2cccs2)cc(-c2ccccc2)nc1S | 20.6 |
| Cc1nc2c(C(=O)NC(C)C)cnn2c(C)c1Cc1ccc(Cl)cc1 | 2.79 |
| Brc1ccc(N2N=C(c3cccnc3)CC2c2ccccc2)cc1 (stereo not shown) | 5.73 |
| CCc1ccc(NC(=O)Cn2cnc3scc(-c4ccc(OC)cc4)c3c2=O)cc1 | 6.73 |
| O=S(=O)(Nc1ncccn1)c1ccc2ccccc2c1 | -3.04 |
| CCCN1CCC(N(C)CCN(C)C)CC1 | -0.292 |
| CC1CC(C)(C)NC(=S)N1CCC(=O)N1CC=C(c2ccccc2)CC1 (stereo not shown) | -2.4 |
| C=CCC(OC(=O)N[C@@H](CC(C)C)C(=O)NCC#N)c1ccccc1 (stereo partly shown) | -4.72 |
| Oc1ccc(Cl)cc1-c1cc(-c2ccc(Cl)cc2)[nH]n1 | 4.61 |
| CCOC(=O)c1c(NC(=O)c2ccc(S(=O)(=O)N(C)C)cc2)sc2c1CCN(CC)C2 | 7.66 |
| O=C(NCc1nnc(S)n1-c1ccccc1)c1cccs1 | 6.51 |
| CCn1nc(C)c2c(C(F)(F)C(F)(F)F)cc(=O)n(CC(=O)NC3CCCCC3)c21 | -0.154 |
| c1ccc(CCn2cnnn2)cc1 | -5.96 |
| CCOc1ccc(CCNC(=O)Cn2ncn3c(cc4sc(CC)cc43)c2=O)cc1OCC | 1.68 |
| O=S(=O)(NCCc1cccs1)c1ccc(-c2ccc(O)nn2)o1 | -4.41 |

| Structure (SMILES) | % Inhibition @ 10 uM [%] |
| --- | --- |
| CC(=O)c1ccc(NC(=O)c2cc3nc(C(F)F)cc(C(F)F)n3n2)cc1 | -2.09 |
| O=C(O)c1cc([N+](=O)[O-])c(NCCCO)c([N+](=O)[O-])c1 | -0.128 |
| COC(=O)C1=CN(CC2CCCO2)C=C(C(=O)OC)C1c1cccc(O)c1 (stereo not shown) | -3.14 |
| CC(=O)c1c(N2CCOCC2)nc(=O)n(-c2ccccc2)c1C | -4.93 |
| COc1cc(OC)cc(C(=O)Nc2ccc(S(=O)(=O)Nc3cc(C)on3)cc2)c1 | 3.65 |
| COc1ccc(OC)c(S(=O)(=O)NCC2CCCO2)c1 (stereo not shown) | -1.06 |
| Cc1c(C(=O)NCc2c(F)cc(F)cc2F)oc2ccc(S(=O)(=O)N3CCCC(C)C3)cc12 (stereo not shown) | -1.31 |
| CN(C)C(CNC(=O)c1ccc(Br)cc1)c1ccco1 (stereo not shown) | 6.34 |
| O=c1c2ccccc2nc(CNC2CCCCC2)n1-c1ccc(F)cc1 | 3.66 |
| Cc1cccc(CSc2nc3n(n2)C(c2cccs2)C2=C(O)CCCC2=N3)c1 (stereo not shown) | 2.55 |
| CCC(Sc1nc2ccccc2c2nc3ccccc3n12)C(=O)N1CCOCC1 (stereo not shown) | 1.24 |
| C=C(C)CC(C(=O)NCC#N)c1cccc(Br)c1 (stereo not shown) | 1.7 |
| O=C(c1ccc2c(c1)OCO2)N1CCN(C(c2ccccc2)c2ccccc2)CC1 | 3.81 |
| CNC(=O)c1cc2c(=O)n3ccccc3nc2n(CCCOC)c1=N | 0.279 |
| Cc1cccc(CN2CCN(Cc3ccccc3)CC2)c1 | -1.07 |
| CC1CCc2c(sc3nnn(CC(N)=O)c(=O)c23)C1 (stereo not shown) | -4.85 |
| O=C(COc1ccc(Cl)cc1)O/N=C1\CCCc2oc3c(c21)CCCC3 | -1.82 |
| CC12CNCC(C)(CN(Cc3ccccc3)C1)C2 | 1.54 |
| CCOC(=O)C1=CN(C(C)C)C=C(C(=O)OCC)C1c1ccccc1Cl | -1.48 |
| NC(=O)c1cc2cc(F)ccc2oc1=O | 0.351 |
| N#CCNC(=O)[C@H](Cc1c[nH]c2cccc(F)c12)NC(=O)OCc1ccccc1 | -8.26 |
| Cn1c(=O)c2c(nc(N3CCc4ccccc4C3)n2Cc2ccccc2)n(C)c1=O | 3.06 |
| O=c1nc(/C=C/c2ccc(Cl)cc2)oc2ccccc12 | -4.57 |
| Cc1c(C(=O)NCCCn2ccnc2)oc2ccccc12 | -1.25 |
| CC(=O)Nc1ccc(S(=O)(=O)NC(C)c2ccccc2)cc1 (stereo not shown) | -4.05 |
